From PubChem BioAssay AID1963425 (Molecular Pharmacology Branch, DTP, NCI, 2024)
Certain results were filed several times, with different values. This list holds those alone. An entry can have further records. Values given together are repeats (runs, samples, wells, individuals or studies). Brackets with × give the number of equal values in this list.

Tested on: 323965-272-R-J2-PDC complex spheroid growth, % test/control
Assay: Anticancer human tumor 323965-272-R-J2-PDC patient-derived pancreatic carcinoma cell line growth inhibition [Asc]
Conditions: stronger effect = lower value
Method: Multicellular complex tumor spheroid response to apoptosis pathway targeting inhibitors Alrizomadlin, Pelcitoclax, and Dasminapant in combination with a variety of drugs and investigational agents in selected tumor cell lines
The MDM2 inhibitor alrizomadlin, the Bcl-2/Bcl-xL inhibitor pelcitoclax, and the IAPs inhibitor dasminapant were evaluated both individually and in combination with standard of care and investigational anticancer small molecules within a complex spheroid model of solid tumors. . Complex spheroids include a stromal component modeled by human endothelial cells (HUVEC) and fibroblasts modeled by human mesenchymal stem cells (MSCs). The concentration ranges selected for each drug and investigational agent were based upon clinically achievable concentrations if the clinical Cmax of the agent was known.
Compounds. The drugs and investigational agents: alrizomadlin (APG-115; NSC831270), pelcitoclax (APG-1252; NSC835773), dasminapant (APG-1387;NSC834197), TAK-243 (NSC785004), copanlisib (NSC809693), olaparib (NSC753686), talazoparib (NSC767125), cobimetinib (NSC 768068), eltanexor (KPT-8602, NSC 794443), abemaciclib (NSC 768073), sotorasib (NSC818433), adagrasib (NSC 831453), MRTX-1133 (NSC 836407), Iadademestat (ORY1001, NSC 806812), and RMC-4630 (NSC839698), were obtained from the NCI Developmental Therapeutics Program Chemical Repository. The FDA-approved anticancer drug set is available from the Developmental Therapeutics Program at https://dtp.cancer.gov/organization/dscb/obtaining/available plates.htm. […] The stock solutions were prepared in dimethyl sulfoxide (DMSO, Sigma-Aldrich, St. Louis, MO, cat. D2650) at 800-fold the tested concentration and stored at -70 degrees C prior to their use. All drugs and investigational agents were tested over a range starting from a high concentration at or near the clinical Cmax and decreasing in half-log increments. If the clinical Cmax for an agent had not been determined, the highest concentration tested was 10 microM.
The patient-derived cancer (PDC) cell lines include five colon adenocarcinomas: 186277-243-T-J2-PDC, 616215-338-R-J1-PDC, 439559-082-T-J2-PDC, 463943-066-T-J2-PDC, and 519858-162-T-J1-PDC; three pancreatic carcinomas: 323965-272-R-J2-PDC, 521955-158-R6-J3-PDC, and 521955-158-R2-J5-PDC; two uterine sarcomas: 327498-152-R-J2-PDC and 993429-296-R-J1-PDC; two rhabdomyosarcomas: 755483-174-R-J1-PDC and 772245-204-R-J1-PDC; two soft tissue sarcomas: 126254-015-R-J1-PDC and 494315-158-R-J1-PDC; two malignant fibrous histiocytomas: 317291-083-R-J1-PDC and 596521-263-R-J1-PDC; two breast carcinomas: 171881-019-R-J1-PDC and 885512-296-R-J2-PDC; and one ovarian carcinoma: 6556581-035-R-J-PDC were obtained from the NCI PDMR, (https://pdmr.cancer.gov). The established cell lines HSSY-2 synovial sarcoma (RRID:CVCL 8719), SYO-1 synovial sarcoma (RRID:CVCL_7146), MPNST malignant peripheral neural sheath tumor were obtained from the Sloan Kettering Institute. […]
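Note: compound exposure lasted 7 days starting three days after spheroid seeding; 100% = DMSO vehicle control wells with viability set relative to vehicle.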

SMILES | viability, T/C (compound alone 10 µM) | viability, T/C (compound alone 1 µM) | viability, T/C (compound alone 0.00316 µM) | viability, T/C (compound alone 0.0316 µM)
C=C(F)C(=O)N1CCN(c2nc(OCC3CCCN3C)nc3c2CCN(c2cccc4cccc(Cl)c24)C3)CC1CC#N (stereo not given) | 32.8%, 21.9%, 2.26% | – | – | –
Cc1c(S(C)(=O)=O)c(-c2cc(F)cc(N3CCN(c4ccc(NS(=O)(=O)c5ccc(NC(CCN6CCC(C(=O)OCCCP(=O)(O)O)CC6)CSc6ccccc6)c(S(=O)(=O)C(F)(F)F)c5)cc4)CC3)c2)c(-c2ccc(Cl)cc2)n1C(C)C (stereo not given) | – | 109, 76.2, 80.5, 92.3, 75.2, 82.4, 79.2% | – | –
CNC(C)C(=O)NC1CN(S(=O)(=O)c2cccc(S(=O)(=O)N3CCC4CCC(C(=O)NC(c5ccccc5)c5ccccc5)N4C(=O)C(NC(=O)C(C)NC)C3)c2)CCC2CCC(C(=O)NC(c3ccccc3)c3ccccc3)N2C1=O (stereo not given) | – | 104, 58.6, 90.2, 92.9, 109, 89.3, 101, 89.6, 92.8% | 108 (2×), 104, 54.1, 107 (2×), 94.3, 110, 117% | 106, 90.4, 100, 117, 113 (2×), 107, 103, 98.8%
